This is an account of results in a collection of fitness landscapes (doi:10.1126/science.1257360).

Some of the results follow.

First the molecules themselves.
B1: PhoQ; a variant is named by its letters at X, in order, P23837 (parent)
chain: MKKLLRLFFPLSLRVRFLLATAAVVLVLSLAYGMVALIGYSVSFDKTTFRLLRGESNLFYTLAKWENNKLHVELPENIDKQSPTMTLIYDENGQLLWAQRDVPWLMKMIQPDWLKSNGFHEIEADVNDTSLLLSGDHSIQQQLQEVREDDDDAEMTHSVAVNVYPATSRMPKLTIVVVDTIPVELKSSYMVWSWFIYVLSANLLLVIPLLWVAAWWSLRPIEALAKEVRELEEHNRELLNPATTRELTSLVRNLNRLLKSERERYDKYRTTLTDLTHSLKTPLXXLQXXLRSLRSEKMSVSDAEPVMLEQISRISQQIGYYLHRASMRGGTLLSRELHPVAPLLDNLTSALNKVYQRKGVNISLDISPEISFVGEQNDFVEVMGNVLDNACKYCLEFVEISARQTDEHLYIVVEDDGPGIPLSKREVIFDRGQRVDTLRPGQGVGLAVAREITEQYEGKIVAGESMLGGARMEVIFGRQHSAPKDE

This assay covers variants of B1. The assay can be described thus: enrichment ratio after two sorts for PhoP signalling (ratio (wild type AVST 3.29)); higher = more functional. The conditions noted are these: with PhoP (E. coli).
For the variant DIFM, the enrichment ratio is at most 0.25.

For GKSN, the enrichment ratio is at most 0.25. Under TIPP stands at most 0.25; under AYSS, at most 0.25; under GCSN, 3.22. On to NMAT, for which the enrichment ratio was at most 0.25. DTVN: the enrichment ratio was at most 0.25.

With TDSG, the enrichment ratio was found to be 3.25.

Regarding PDVD, the enrichment ratio is at most 0.25.

As for RDDV, the enrichment ratio is at most 0.25. As for SDMR, the enrichment ratio is at most 0.25. As for NRLN, the figure is at most 0.25; as for DIQA, at most 0.25; as for QMRG, at most 0.25. Regarding QPRL, the enrichment ratio is at most 0.25. As for DVQR, the figure is at most 0.25; as for FLES, at most 0.25. As for FKNK, the figure is at most 0.25; as for SGGI, 11.1.

With FQAK, the enrichment ratio was at most 0.25. In the case of ITYI, the enrichment ratio was at most 0.25. For the variant EVLA, the enrichment ratio was at most 0.25. Consider QGAM, for which the enrichment ratio amounted to 13. Regarding FNNW, the enrichment ratio is at most 0.25. Under VDCH stands 2.16; under SQVR, at most 0.25. Take FFDP: the enrichment ratio was at most 0.25. On to RDFF, for which the enrichment ratio is at most 0.25.

As for FCCN, the enrichment ratio was at most 0.25.

In the case of HWRG, the enrichment ratio is at most 0.25. Consider IHWA, for which the enrichment ratio is at most 0.25. As for KSLC, the figure is at most 0.25; as for WSPC, at most 0.25; as for IMNP, at most 0.25. Under VKDI stands at most 0.25; under YSSK, at most 0.25.

As for STHY, the enrichment ratio is at most 0.25. FDEW: the enrichment ratio is at most 0.25.

Consider NREW, for which the enrichment ratio was at most 0.25. For the variant EVDC, the enrichment ratio is at most 0.25. In the case of SPYK, the enrichment ratio was at most 0.25. On to RAYR, for which the enrichment ratio was at most 0.25. Take VYRC: the enrichment ratio is at most 0.25.

With HFMY, the enrichment ratio is at most 0.25. GCWA: the enrichment ratio was at most 0.25. For the variant AARV, the enrichment ratio is at most 0.25.

Take VDMP: the enrichment ratio is at most 0.25. Under KEPR stands at most 0.25; under EYKY, at most 0.25.

For the variant AFDR, the enrichment ratio was at most 0.25.

Consider FVIC, for which the enrichment ratio is at most 0.25. As for QEYY, the figure is 17.4; as for AVAK, 9.48. As for HRDV, the enrichment ratio was at most 0.25.

For TFQN, the enrichment ratio was 1.88. Under MICK stands at most 0.25; under DFRE, at most 0.25. As for QAYT, the enrichment ratio was at most 0.25.

For the variant IDRW, the enrichment ratio is at most 0.25. Regarding KHVL, the enrichment ratio is at most 0.25. As for VTMV, the enrichment ratio is 2.37.

LNQM: the enrichment ratio was at most 0.25. For the variant TSHN, the enrichment ratio was determined as 0.659. As for FYHP, the enrichment ratio was at most 0.25. As for HLST, the enrichment ratio is at most 0.25. YQVR: the enrichment ratio was at most 0.25. Consider TDDS, for which the enrichment ratio is at most 0.25.

With GGYP, the enrichment ratio is at most 0.25.

Consider LFIL, for which the enrichment ratio is at most 0.25. As to QRSG, the enrichment ratio was at most 0.25. Under MAIH stands at most 0.25; under LGSQ, at most 0.25.

Turning to NTCA, the enrichment ratio was at most 0.25. As to MCYF, the enrichment ratio amounted to 3.56. For the variant ATGI, the enrichment ratio was 13.1. Consider MTMI, for which the enrichment ratio was 1.88. Under SRWW stands at most 0.25. As for YQMP, the figure is at most 0.25. Under EYME stands at most 0.25. For AKRM, the enrichment ratio is at most 0.25. In the case of LAYC, the enrichment ratio is at most 0.25. Under IRMM stands at most 0.25; under TCYV, 9.55.

As to FSQQ, the enrichment ratio is at most 0.25. For LANM, the enrichment ratio is at most 0.25. Under VKDA stands at most 0.25; under TNQN, 16.8; under ELSD, at most 0.25.

Regarding YCIC, the enrichment ratio is at most 0.25. Take DCQG: the enrichment ratio was at most 0.25. On to LCPH, for which the enrichment ratio is at most 0.25. For the variant QMHY, the enrichment ratio was at most 0.25.

Consider MAST, for which the enrichment ratio is at most 0.25. For the variant RIDN, the enrichment ratio was at most 0.25. QWFV: the enrichment ratio is at most 0.25. With VDIN, the enrichment ratio is at most 0.25. Under FVYA stands at most 0.25. On to RMVS, for which the enrichment ratio is at most 0.25. As for TTFY, the figure is 1.18; as for VWFG, at most 0.25. As for WEHS, the figure is at most 0.25. For ESAP, the enrichment ratio was at most 0.25.

AMWD: the enrichment ratio is at most 0.25. In the case of TINQ, the enrichment ratio was determined as 3.05. As for AYLE, the enrichment ratio is at most 0.25. For QHGG, the enrichment ratio is at most 0.25. Take QIVV: the enrichment ratio is at most 0.25.

Regarding VLWD, the enrichment ratio was at most 0.25. As for ILLP, the figure is at most 0.25; as for MPTV, at most 0.25; as for QKRA, at most 0.25. Regarding ECVD, the enrichment ratio is at most 0.25. Under EIEI stands at most 0.25. Under WVCC stands at most 0.25.

Regarding VLPE, the enrichment ratio is at most 0.25. As for IHVM, the figure is at most 0.25; as for LQQL, at most 0.25; as for HQDP, at most 0.25. Turning to VECN, the enrichment ratio is at most 0.25. With SFEQ, the enrichment ratio is at most 0.25. Under QGML stands 6.23. TEMR: the enrichment ratio worked out at 12.2. As for GWVQ, the enrichment ratio is at most 0.25. For the variant EMLC, the enrichment ratio is at most 0.25.

Turning to IHAL, the enrichment ratio is at most 0.25.

Turning to IFIA, the enrichment ratio was at most 0.25.

Take WQVQ: the enrichment ratio was at most 0.25. Consider LALE, for which the enrichment ratio is at most 0.25. As for MHAI, the figure is at most 0.25; as for QHIN, at most 0.25.

Consider PWYR, for which the enrichment ratio was at most 0.25. For the variant SNNM, the enrichment ratio was 13.1. Under MADC stands at most 0.25. For QYVT, the enrichment ratio is at most 0.25. On to KYWP, for which the enrichment ratio is at most 0.25. Turning to YILG, the enrichment ratio amounted to 3.1.

In the case of SMCP, the enrichment ratio came out at 0.358.

Turning to TAND, the enrichment ratio was 6.24.

Regarding TKGI, the enrichment ratio amounted to 2.06. For the variant PYRA, the enrichment ratio is at most 0.25. For DFGS, the enrichment ratio was at most 0.25. On to MGPA, for which the enrichment ratio is at most 0.25. For the variant RACP, the enrichment ratio was at most 0.25.

Take MISE: the enrichment ratio is at most 0.25. Turning to IDIG, the enrichment ratio is at most 0.25.

On to HKFV, for which the enrichment ratio was at most 0.25. Turning to QDGV, the enrichment ratio was at most 0.25. On to SKWV, for which the enrichment ratio was at most 0.25.

For EIAN, the enrichment ratio is at most 0.25. Regarding MYTE, the enrichment ratio is at most 0.25. As for DQAR, the figure is at most 0.25; as for GLFW, at most 0.25. As for FRTH, the enrichment ratio was at most 0.25.
